The values below come from paper PMC9911399, “Two distinct binding modes provide the RNA-binding protein RbFox with extraordinary sequence specificity”.

The labels stand for the following.
T1: RBFOX1 RRM RbFoxmut (Fox-RRM*) (Homo sapiens, UniProt Q9NWB1 109-208, R118D;E147R;N151S;E152T)
T1 sequence: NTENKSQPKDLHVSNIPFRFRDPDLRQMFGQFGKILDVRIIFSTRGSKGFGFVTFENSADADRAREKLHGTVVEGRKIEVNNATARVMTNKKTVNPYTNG

B1: CAUAGUU (DNA:RNA)
RNA: GGGAGACCGGAAUUCAGAUUGUCCCAUAGUUUUAAAUCCCGUCGUAGCCACCA
DNA 1: CAATCTGAATTCCGGTCTCCC
DNA 2: TGGTGGCTACGACGGGATT
B2: UUCAAUC (DNA:RNA)
RNA: B1 RNA with C25U, A26U, U27C, G29A, U31C
DNA 1: CAATCTGAATTCCGGTCTCCC
DNA 2: TGGTGGCTACGACGGGATT
B3: GGUGGUU (DNA:RNA)
RNA: B1 RNA with C25G, A26G, A28G
DNA 1: CAATCTGAATTCCGGTCTCCC
DNA 2: TGGTGGCTACGACGGGATT
B4: CGAAGGU (DNA:RNA)
RNA: B1 RNA with A26G, U27A, U30G
DNA 1: CAATCTGAATTCCGGTCTCCC
DNA 2: TGGTGGCTACGACGGGATT
B5: ACAGAGA (DNA:RNA)
RNA: GGGAGACCGGAAUUCAGAUUGUCCACAGAGAUUAAAUCCCGUCGUAGCCACCA
DNA 1: CAATCTGAATTCCGGTCTCCC
DNA 2: TGGTGGCTACGACGGGATT
B6: GCUGUUU (DNA:RNA)
RNA: B1 RNA with C25G, A26C, A28G, G29U
DNA 1: CAATCTGAATTCCGGTCTCCC
DNA 2: TGGTGGCTACGACGGGATT
B7: AAACAAC (DNA:RNA)
RNA: B5 RNA with C26A, G28C, G30A, A31C
DNA 1: CAATCTGAATTCCGGTCTCCC
DNA 2: TGGTGGCTACGACGGGATT
B8: GGUUUAU (DNA:RNA)
RNA: B1 RNA with C25G, A26G, A28U, G29U, U30A
DNA 1: CAATCTGAATTCCGGTCTCCC
DNA 2: TGGTGGCTACGACGGGATT
B9: ACUGGCC (DNA:RNA)
RNA: B5 RNA with A27U, A29G, G30C, A31C
DNA 1: CAATCTGAATTCCGGTCTCCC
DNA 2: TGGTGGCTACGACGGGATT
B10: UGUUCGC (DNA:RNA)
RNA: B5 RNA with A25U, C26G, A27U, G28U, A29C, A31C
DNA 1: CAATCTGAATTCCGGTCTCCC
DNA 2: TGGTGGCTACGACGGGATT
B11: UAGUUGU (DNA:RNA)
RNA: B1 RNA with C25U, U27G, A28U, G29U, U30G
DNA 1: CAATCTGAATTCCGGTCTCCC
DNA 2: TGGTGGCTACGACGGGATT
B12: GUGCAAU (DNA:RNA)
RNA: B5 RNA with A25G, C26U, A27G, G28C, G30A, A31U
DNA 1: CAATCTGAATTCCGGTCTCCC
DNA 2: TGGTGGCTACGACGGGATT
B13: CCAGUGG (DNA:RNA)
RNA: B5 RNA with A25C, A29U, A31G
DNA 1: CAATCTGAATTCCGGTCTCCC
DNA 2: TGGTGGCTACGACGGGATT
B14: AUGGUAG (DNA:RNA)
RNA: B5 RNA with C26U, A27G, A29U, G30A, A31G
DNA 1: CAATCTGAATTCCGGTCTCCC
DNA 2: TGGTGGCTACGACGGGATT
B15: AGACCUA (DNA:RNA)
RNA: B5 RNA with C26G, G28C, A29C, G30U
DNA 1: CAATCTGAATTCCGGTCTCCC
DNA 2: TGGTGGCTACGACGGGATT
B16: GGGCCGG (DNA:RNA)
RNA: B5 RNA with A25G, C26G, A27G, G28C, A29C, A31G
DNA 1: CAATCTGAATTCCGGTCTCCC
DNA 2: TGGTGGCTACGACGGGATT
B17: AAUUCAC (DNA:RNA)
RNA: B1 RNA with C25A, A28U, G29C, U30A, U31C
DNA 1: CAATCTGAATTCCGGTCTCCC
DNA 2: TGGTGGCTACGACGGGATT
B18: GUGGAAG (DNA:RNA)
RNA: B5 RNA with A25G, C26U, A27G, G30A, A31G
DNA 1: CAATCTGAATTCCGGTCTCCC
DNA 2: TGGTGGCTACGACGGGATT
B19: GAACUGA (DNA:RNA)
RNA: B5 RNA with A25G, C26A, G28C, A29U
DNA 1: CAATCTGAATTCCGGTCTCCC
DNA 2: TGGTGGCTACGACGGGATT
B20: UAUUAUU (DNA:RNA)
RNA: B1 RNA with C25U, A28U, G29A
DNA 1: CAATCTGAATTCCGGTCTCCC
DNA 2: TGGTGGCTACGACGGGATT

Positions count from the first letter of the chain named. This is one part of the list.

The assay has as its target T1, RBFOX1 RRM RbFoxmut (Fox-RRM*). Description: EMSA; HiTS-Eq, 1 nM pool, 10 min; buffer printed only for the single-RNA assays: 10 mM Tris pH 7.5, 150 mM NaCl, 3.4 mM EDTA, 0.001% NP-40, 30 C. The note with it: tags: His6 N-terminal (pET28a); label: 5' 32P. An outline of the steps: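 These values rest on relative association constants, computed from read-count changes of each RNA species versus the control reaction and normalised to the cognate motif. Reads came from free RNA recovered by 8% native PAGE after purified RbFox RRM (wild type or mutant) at increasing concentrations was equilibrated for 10 min in 50 µL with 1 nM of a 5′-radiolabelled pool with 7 randomized nucleotides and DNA-annealed flanks.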
Background: A gel shift assay detects complexes by their altered migration in electrophoresis.
Regarding B1, the binding signal was 0.105 KA relative to UGCAUGU.

Turning to B2, the binding signal was 0.0455 KA relative to UGCAUGU.

In the case of B3, the binding signal is 0.106 KA relative to UGCAUGU.

In the case of B4, the binding signal is 0.0983 KA relative to UGCAUGU.

Turning to B5, the binding signal is 0.113 KA relative to UGCAUGU.

In the case of B6, the binding signal was 0.0916 KA relative to UGCAUGU.

For B7, the binding signal was 0.0531 KA relative to UGCAUGU.

B8: the binding signal is 0.102 KA relative to UGCAUGU.

Turning to B9, the binding signal was 0.275 KA relative to UGCAUGU.

Turning to B10, the binding signal was 0.162 KA relative to UGCAUGU.

Turning to B11, the binding signal was 0.144 KA relative to UGCAUGU.

In the case of B12, the binding signal was 0.0644 KA relative to UGCAUGU.

Take B13: the binding signal is 0.0621 KA relative to UGCAUGU.

Regarding B14, the binding signal was 0.202 KA relative to UGCAUGU.

Consider B15, for which the binding signal is 0.0847 KA relative to UGCAUGU.

As for B16, the binding signal is 0.117 KA relative to UGCAUGU.

B17: the binding signal was 0.0765 KA relative to UGCAUGU.

As to B18, the binding signal was 0.128 KA relative to UGCAUGU.

For B19, the binding signal was 0.0717 KA relative to UGCAUGU.

As to B20, the binding signal was 0.122 KA relative to UGCAUGU.
